We go through 89 compounds from PubChem BioAssay AID463173 (ICCB-Longwood Screening Facility, Harvard Medical School, 2010).

The campaign covered roughly 52,000 compounds. About 1,700 (3.3%) were called active. Rule as the data show it: active = survival mostly below about 52% (no sharp cut-off); inactive = mostly above about 56%. Some of the results follow.

The test system of this experiment is Wild type. As to the kind of experiment: S. aureus survival, RN4220 and DeltatarO strains – OD600, teichoic acid synthesis inhibitors, primary screen (AID 463173). The conditions noted are these: S. aureus RN4220 wild type/DeltatarO growth, OD600, 18 h, hits give low values, screened at 18.75 µg/mL (by protocol).
As for `CCc1c(C)nc2nncn2c1Nc1cccc(C)c1`, the survival is inactive: 91%. Turning to `N#Cc1ccccc1S(=O)(=O)N1CCC(Oc2ccc(-n3cnnn3)cc2)CC1`, the survival was inactive: 83%.

Regarding `O=C(Cc1ccccc1)Nc1cc(-c2nc3cc(Cl)ccc3o2)ccc1Cl`, the survival was inactive: 79%. With `COc1cccc(/C=C2/SC(=O)N(C)C2=O)c1O`, the survival was inactive: 109%. As for `COc1ccc(Cc2nc3ccc(C(=O)NCc4cc(Br)ccc4OC)cc3o2)cc1`, the survival was inactive: 92%. As to `Fc1ccc(-c2noc3ncnc(N4CCCCC4)c23)cc1`, the survival was inactive: 135%. `Cc1ccc(C)c(NC(=O)Cn2nnc(C(=O)NCc3ccco3)c2N)c1`: the survival was inactive: 99%.

With `CNC(=O)C1CCN(C(=O)N2CC(C)Oc3ccc(C)cc32)CC1` (centres undefined), the survival is inactive: 86%. As to `O=C(CN1CCN(c2cccc(Cl)c2)CC1)Nc1nccs1`, the survival was inactive: 104%. For `O=S(=O)(Nc1ccc(O)cc1)c1cccs1`, the survival was inactive: 101%. In the case of `COc1ccc(CCC(=O)NCc2nc3cccnc3n2Cc2ccc(OC)cc2)cc1`, the survival is inactive: 90%. As for `CCOC(=O)c1c(NC(=O)CS(=O)(=O)c2ccc(Cl)cc2)sc2c1CCCC2`, the survival was inactive: 98%. For the compound `Cc1ccccc1CNC(=O)C1CCCN(c2nnc(-n3c(C)ccc3C)s2)C1` (centres undefined), the survival is inactive: 85%. Under `COc1ccccc1N(C)C(=O)Cn1c(=O)oc2cc(S(=O)(=O)N3CCCC3)ccc21` stands inactive: 127%.

For the compound `CCOC(=O)c1c(NC(=O)c2cc(=O)c3c(C)cc(C)cc3o2)sc2c1CCC2`, the survival is inactive: 83%.

As for `COc1ccc(-c2cc(C(=O)OCC(=O)c3cccc(OC)c3)c3cccc(Cl)c3n2)cc1`, the survival is inactive: 67%. As for `COc1ccc(NC(=O)C2CCN(c3nc(-c4ccc(OC)c(OC)c4)no3)CC2)cc1Cl`, the figure is inactive: 85%; as for `Cc1nn(C)c2c1c(C(F)(F)F)cc(=O)n2C(C)C(=O)N1CCN(c2ccccc2)CC1` (centres undefined), inactive: 93%; as for `Cn1cc(S(=O)(=O)N2CCCCCC2)cc1C(=O)N1CCN(c2ccc(Cl)cc2)CC1`, inactive: 77%. `Clc1ccc(CCNC(c2cccc(Cl)c2)c2nnc(-c3ccccc3)o2)cc1` (centres undefined): the survival was active: 5%. As for `Cn1c(=O)c2c(ncn2CC(=O)Nc2cc(Cl)cc(Cl)c2)n(C)c1=O`, the survival was inactive: 84%. Regarding `CCOC(=O)c1c(C)[nH]c(C)c1S(=O)(=O)N1CCN(c2ccccc2OC)CC1`, the survival is inactive: 124%. On to `COc1ccc(Cl)cc1NC(=O)CSc1nc2ccccc2nc1N1CCCCC1`, for which the survival is active: -9%. In the case of `CC1=C(C(=O)Nc2ccccc2)C(c2ccccc2Cl)n2ncc(C(=O)Nc3cccc(C)c3)c2N1` (centres undefined), the survival was inactive: 72%. In the case of `CCOC(=O)c1c(C)oc2ncnc(N3CCN(c4cccc(Cl)c4)CC3)c12`, the survival was inactive: 115%. For `COc1cc(/C=C/c2nc(C#N)c(NC(C)c3ccccc3)o2)cc(OC)c1OC` (centres undefined), the survival was inactive: 68%. Turning to `O=C(O)CCc1ccc(-c2ccccc2)n1-c1cccc(Br)c1`, the survival was inactive: 60%. For the compound `CCOc1ccc(CNC(=O)Cn2c(=O)c3cccn3c3ccc(F)cc32)cc1OC`, the survival is inactive: 100%. Under `O=C(CCCCn1c(=O)c2ccccc2n(CC(=O)Nc2cccc(F)c2)c1=O)NCc1ccccc1Cl` stands inactive: 89%.

Regarding `CN(Cc1ccccc1)C(=O)c1cc2c(s1)-c1ccc(Cl)cc1SC2`, the survival is inactive: 86%.

Turning to `CCCCN(C)CCNC(=O)Cn1ncc2c([nH]c3ccccc32)c1=O`, the survival was active: 0%. For `Cc1ccc(NC(=O)CCSc2nc(-c3ccc4c(c3)OCO4)cc(C(F)(F)F)n2)cc1`, the survival was inactive: 80%.

On to `Cc1ccc(CNC(=O)Cn2c(=O)n(-c3ccccc3)c(=O)c3c2c2cc(C)ccc2n3C)cc1`, for which the survival was inactive: 67%. For the compound `CCc1ccc(Oc2nc3c(C)cccn3c(=O)c2/C=C(\C#N)c2nc3ccccc3s2)cc1`, the survival is inactive: 70%. Consider `O=C(c1ccc(Cl)cc1)n1nc(-c2ccco2)nc1NCc1cccs1`, for which the survival was inactive: 87%. As for `CCN(CC)CCNc1c2c(nc3cc(-c4ccc(OC)c(OC)c4)nn13)CCC2`, the figure is inactive: 108%; as for `CCOC(=O)CCN(c1ccccc1)S(=O)(=O)c1ccc2[nH]c(=O)ccc2c1`, inactive: 69%.

As to `COc1cccc(N(Cc2nnc3n2CCCCC3)C(=O)Nc2cccc(Cl)c2)c1`, the survival is inactive: 55%. Regarding `CCOCCCNC(=O)CN1C(=O)c2c(c3ccccc3n2C)C1c1ccc(OC)cc1` (centres undefined), the survival was inactive: 69%.

Consider `COc1ccc(CCCc2nnc(SCC(=O)Nc3ccccc3F)o2)cc1C`, for which the survival is inactive: 67%. Turning to `Cc1ccc(-n2ncc3c(N(CCO)Cc4ccccc4)ncnc32)cc1`, the survival was active: 0%. As for `CCOc1ccccc1NC(=O)N1CCCn2nc(C)cc21`, the figure is inactive: 75%; as for `O=C(NCC(c1cccs1)S(=O)(=O)c1cccs1)c1ccc(C(F)(F)F)cc1` (centres undefined), inactive: 72%; as for `O=C(O)CC1c2ccccc2Oc2ccccc21`, inactive: 129%. Under `O=C(Cc1csc2nc(-c3ccccc3)cn12)NCc1ccc(F)cc1` stands inactive: 72%.

In the case of `O=C(O)c1cccc(-n2cccc2)c1`, the survival was inactive: 103%.

For the compound `Cc1ccc(NC(=O)CCc2c(C)nn(-c3ccc(N4CCOCC4)nn3)c2C)cc1F`, the survival is inactive: 120%.

For the compound `COc1ccc(N(C(=O)COc2ccc(Br)cc2)S(=O)(=O)c2ccc(C)cc2)cc1`, the survival was inactive: 87%.

On to `CCOC(=O)c1c(S(=O)(=O)N2CCCC(C(=O)Nc3ncccc3C)C2)c(C)n(C)c1C` (centres undefined), for which the survival was inactive: 71%.

With `O=C(OCc1ccccc1Cl)c1ccc(-c2nnn(Cc3ccccc3Cl)n2)cc1`, the survival is inactive: 62%. As for `CNC(=O)N(O)C1N(c2ccccc2)C(=S)SC1(C)C` (centres undefined), the survival was inactive: 109%. Turning to `COc1ccc(Cn2ccc3nc(C)c(C(=O)Nc4ccc(OC)cc4OC)cc3c2=O)cc1`, the survival was active: 0%.

Turning to `Cc1ccc(NC(=O)Cn2cc(S(=O)(=O)NC(C)C)c(S(=O)(=O)NC(C)C)c2)cc1Cl`, the survival is inactive: 74%. For `Cc1ccc(NC(=O)Cn2c(=O)n(CCc3ccccc3)c(=O)c3c4c(sc32)CCCC4)cc1C`, the survival is inactive: 95%. As to `Cc1ccc(C)c(CN2C(=O)c3ccccc3S(=O)c3ccc(C(=O)NCc4ccco4)cc32)c1` (centres undefined), the survival is inactive: 93%.

Turning to `COc1ccc(CNC(=O)Cn2ccc3cc(S(=O)(=O)N4CCCCCC4)ccc32)c(OC)c1`, the survival is inactive: 159%.

For the compound `Cc1ccc(N2CC(NC(=O)/C=C\c3ccc4c(c3)OCO4)CC2=O)cc1` (centres undefined), the survival was inactive: 63%.

For the compound `O=C(C1CC1)N1CCc2cc(Br)cc(S(=O)(=O)N3CCN(c4ccccc4F)CC3)c21`, the survival is inactive: 75%. `COc1ccc(Oc2nc3c(c(=O)n(Cc4ccccc4Cl)c(=O)n3C)n2C)cc1`: the survival was inactive: 66%. In the case of `COC(=O)c1c(SCC(=O)Nc2ccccc2OC)[nH]c2ccccc2c1=O`, the survival is inactive: 66%.

In the case of `Cc1cc2ccccc2n1-c1ccc(C(=O)N2CCC(C(=O)NCc3ccc(F)cc3)CC2)s1`, the survival was active: 1%. Take `CC(C)n1c(=O)c2oc3ccccc3c2n(Cc2ccccc2F)c1=O`: the survival was inactive: 78%. Under `Cc1ccc(-c2nnc(Nc3ccc(O)cc3)c3ccccc23)cc1S(=O)(=O)NCC1CCCO1` (centres undefined) stands inactive: 70%.

As to `COc1cccc(NC(=O)c2ccc(CNS(=O)(=O)c3ccc4c(c3)C(C)(C)C(=O)N4C)cc2)c1`, the survival was inactive: 78%. For `O=C(/C=C/c1ccco1)Nc1ccc(Cl)c(-c2nc3cc(Cl)ccc3o2)c1`, the survival is inactive: 68%. For the compound `Cc1c(Cl)cccc1NC(=O)CSc1cc(-c2ccccc2)ncn1`, the survival was inactive: 84%.

In the case of `Cc1ccc(NC(=O)C2CCN(c3nn4c(=O)cc(C)nc4s3)CC2)cc1`, the survival was inactive: 89%. With `CC12CN3CC(C)(CN(C1)C3c1ccc(OCc3ccccc3)cc1)C2=O` (centres undefined), the survival is inactive: 90%. For `CCOC(=O)c1cccc(NC(=O)CCNS(=O)(=O)c2cccc3nonc23)c1`, the survival is inactive: 69%. As for `CN(C)c1cccc(C(=O)Nc2ccc(-c3nc4ccccc4s3)cc2)c1`, the figure is inactive: 124%.

For the compound `O=C(CSc1nc2c(oc3ccccc32)c(=O)[nH]1)Nc1cccc(Cl)c1`, the survival was inactive: 63%.

Turning to `CC1=C(c2ccc(Cl)cc2)S(=O)(=O)NC1=NCc1ccc(C)cc1`, the survival was inactive: 85%. Take `COc1ccc(-c2nc3scc(CCNS(=O)(=O)c4cccc(C(C)=O)c4)n3n2)cc1`: the survival is inactive: 71%. With `CCOC(=O)c1ccc(NC(=O)c2cc3c(n(-c4ccc(C)cc4)c2=O)CC(C)(C)CC3=O)cc1`, the survival is inactive: 134%. Consider `Cn1c(C(=O)N2CCC(C(=O)NCCc3ccc(S(N)(=O)=O)cc3)CC2)cc2sccc21`, for which the survival is inactive: 88%.

`Cc1ccc(CCNC(=O)c2ccc(CSCc3ccc(C)cc3)o2)cc1`: the survival is inactive: 65%. For `COc1cccc(NC(=O)N2CCN(c3nnnn3-c3ccccc3)CC2)c1`, the survival is inactive: 105%. For the compound `Cc1ccc(NC(=O)CSc2nnc(C)c(=O)[nH]2)cc1`, the survival was inactive: 86%. `CCc1ccc(NC(=O)Cn2c(=O)ccc3cc(S(=O)(=O)N4CCCC4)ccc32)cc1`: the survival was inactive: 148%. As for `CCOC(=O)c1cccc(Nc2cc(C)nc(C)n2)c1`, the survival is inactive: 93%. As for `Cc1noc(Cn2c(=O)c3ccccc3n(CC(=O)Nc3ccccc3C(F)(F)F)c2=O)n1`, the figure is inactive: 125%; as for `Oc1ccc(Nc2nc(-c3ccc(Cl)cc3)nc3ccccc23)cc1`, active: 3%. Consider `Cc1nnc2c3ccccc3nc(N3CCN(c4cccc(Cl)c4)CC3)n12`, for which the survival is inactive: 90%.

On to `CCOCCCn1c(=N)c(C(=O)NC2CCCC2)cc2c(=O)n3cccc(C)c3nc21`, for which the survival is inactive: 67%. As for `Cc1cccc(-n2ncc3c(Nc4c(C)cc(C)cc4C)ncnc32)c1`, the figure is inactive: 83%; as for `CCc1ccc(NC(=O)c2ccc3c(c2)c(C)c(C)n3Cc2ccccc2)cc1`, inactive: 72%; as for `CCCCOc1ccc(C2c3c(oc4ccccc4c3=O)C(=O)N2c2nc(C)c(C(=O)OCC)s2)cc1OC` (centres undefined), inactive: 69%. In the case of `COc1ccccc1CNC(=O)CN1C(=O)CCCc2ccccc21`, the survival is inactive: 78%. In the case of `CCc1ccc(NC(=O)c2oc3c(c2C)-c2[nH]ncc2CC3)cc1`, the survival was inactive: 59%.
